# According to PMC9911399, “Two distinct binding modes provide the RNA-binding protein RbFox with extraordinary sequence specificity”:
# Where a chain is given by its changes, count along the chain named. The list shows a part of the results.
# T1: RBFOX1 RRM RbFoxmut (Fox-RRM*) (Homo sapiens, UniProt Q9NWB1 109-208, R118D;E147R;N151S;E152T)
# T1 sequence: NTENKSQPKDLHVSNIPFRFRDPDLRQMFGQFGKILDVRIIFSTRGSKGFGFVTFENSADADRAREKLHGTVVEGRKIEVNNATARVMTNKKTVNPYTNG
# B1: UUCAUCG (DNA:RNA)
# RNA: GGGAGACCGGAAUUCAGAUUGUCCUUCAUCGUUAAAUCCCGUCGUAGCCACCA
# DNA 1: CAATCTGAATTCCGGTCTCCC
# DNA 2: TGGTGGCTACGACGGGATT
# B2: UGGAGGG (DNA:RNA)
# RNA: B1 RNA with U26G, C27G, U29G, C30G
# DNA 1: CAATCTGAATTCCGGTCTCCC
# DNA 2: TGGTGGCTACGACGGGATT
# B3: CUGCCCC (DNA:RNA)
# RNA: B1 RNA with U25C, C27G, A28C, U29C, G31C
# DNA 1: CAATCTGAATTCCGGTCTCCC
# DNA 2: TGGTGGCTACGACGGGATT
# B4: CUUCCGU (DNA:RNA)
# RNA: B1 RNA with U25C, C27U, A28C, U29C, C30G, G31U
# DNA 1: CAATCTGAATTCCGGTCTCCC
# DNA 2: TGGTGGCTACGACGGGATT
# B5: GAUGCAC (DNA:RNA)
# RNA: GGGAGACCGGAAUUCAGAUUGUCCGAUGCACUUAAAUCCCGUCGUAGCCACCA
# DNA 1: CAATCTGAATTCCGGTCTCCC
# DNA 2: TGGTGGCTACGACGGGATT
# B6: CCCUUUU (DNA:RNA)
# RNA: B1 RNA with U25C, U26C, A28U, C30U, G31U
# DNA 1: CAATCTGAATTCCGGTCTCCC
# DNA 2: TGGTGGCTACGACGGGATT
# B7: CUCAGCU (DNA:RNA)
# RNA: B1 RNA with U25C, U29G, G31U
# DNA 1: CAATCTGAATTCCGGTCTCCC
# DNA 2: TGGTGGCTACGACGGGATT
# B8: CCUAGAC (DNA:RNA)
# RNA: B5 RNA with G25C, A26C, G28A, C29G
# DNA 1: CAATCTGAATTCCGGTCTCCC
# DNA 2: TGGTGGCTACGACGGGATT
# B9: AGGCAUG (DNA:RNA)
# RNA: B1 RNA with U25A, U26G, C27G, A28C, U29A, C30U
# DNA 1: CAATCTGAATTCCGGTCTCCC
# DNA 2: TGGTGGCTACGACGGGATT
# B10: UAACCGC (DNA:RNA)
# RNA: B5 RNA with G25U, U27A, G28C, A30G
# DNA 1: CAATCTGAATTCCGGTCTCCC
# DNA 2: TGGTGGCTACGACGGGATT
# B11: UAGACGA (DNA:RNA)
# RNA: B5 RNA with G25U, U27G, G28A, A30G, C31A
# DNA 1: CAATCTGAATTCCGGTCTCCC
# DNA 2: TGGTGGCTACGACGGGATT
# B12: AUCAGUU (DNA:RNA)
# RNA: B1 RNA with U25A, U29G, C30U, G31U
# DNA 1: CAATCTGAATTCCGGTCTCCC
# DNA 2: TGGTGGCTACGACGGGATT
# B13: UAUACAA (DNA:RNA)
# RNA: B5 RNA with G25U, G28A, C31A
# DNA 1: CAATCTGAATTCCGGTCTCCC
# DNA 2: TGGTGGCTACGACGGGATT
# B14: UAACUUA (DNA:RNA)
# RNA: B1 RNA with U26A, C27A, A28C, C30U, G31A
# DNA 1: CAATCTGAATTCCGGTCTCCC
# DNA 2: TGGTGGCTACGACGGGATT
# B15: CCGACUA (DNA:RNA)
# RNA: B5 RNA with G25C, A26C, U27G, G28A, A30U, C31A
# DNA 1: CAATCTGAATTCCGGTCTCCC
# DNA 2: TGGTGGCTACGACGGGATT
# B16: UCACCUU (DNA:RNA)
# RNA: B5 RNA with G25U, A26C, U27A, G28C, A30U, C31U
# DNA 1: CAATCTGAATTCCGGTCTCCC
# DNA 2: TGGTGGCTACGACGGGATT
# B17: ACUGGUA (DNA:RNA)
# RNA: B5 RNA with G25A, A26C, C29G, A30U, C31A
# DNA 1: CAATCTGAATTCCGGTCTCCC
# DNA 2: TGGTGGCTACGACGGGATT
# B18: AGCACUA (DNA:RNA)
# RNA: B1 RNA with U25A, U26G, U29C, C30U, G31A
# DNA 1: CAATCTGAATTCCGGTCTCCC
# DNA 2: TGGTGGCTACGACGGGATT
# B19: UCAGACU (DNA:RNA)
# RNA: B1 RNA with U26C, C27A, A28G, U29A, G31U
# DNA 1: CAATCTGAATTCCGGTCTCCC
# DNA 2: TGGTGGCTACGACGGGATT
# B20: CUAUCAC (DNA:RNA)
# RNA: B5 RNA with G25C, A26U, U27A, G28U
# DNA 1: CAATCTGAATTCCGGTCTCCC
# DNA 2: TGGTGGCTACGACGGGATT
# B21: AUACCCU (DNA:RNA)
# RNA: B1 RNA with U25A, C27A, A28C, U29C, G31U
# DNA 1: CAATCTGAATTCCGGTCTCCC
# DNA 2: TGGTGGCTACGACGGGATT
# B22: CAUCACA (DNA:RNA)
# RNA: B5 RNA with G25C, G28C, C29A, A30C, C31A
# DNA 1: CAATCTGAATTCCGGTCTCCC
# DNA 2: TGGTGGCTACGACGGGATT
# B23: GUAUGUA (DNA:RNA)
# RNA: B5 RNA with A26U, U27A, G28U, C29G, A30U, C31A
# DNA 1: CAATCTGAATTCCGGTCTCCC
# DNA 2: TGGTGGCTACGACGGGATT
# B24: GACGGAA (DNA:RNA)
# RNA: B5 RNA with U27C, C29G, C31A
# DNA 1: CAATCTGAATTCCGGTCTCCC
# DNA 2: TGGTGGCTACGACGGGATT
# B25: CACAGGG (DNA:RNA)
# RNA: B1 RNA with U25C, U26A, U29G, C30G
# DNA 1: CAATCTGAATTCCGGTCTCCC
# DNA 2: TGGTGGCTACGACGGGATT
# B26: GGACUAU (DNA:RNA)
# RNA: B5 RNA with A26G, U27A, G28C, C29U, C31U
# DNA 1: CAATCTGAATTCCGGTCTCCC
# DNA 2: TGGTGGCTACGACGGGATT
# B27: UCGCAGC (DNA:RNA)
# RNA: B5 RNA with G25U, A26C, U27G, G28C, C29A, A30G
# DNA 1: CAATCTGAATTCCGGTCTCCC
# DNA 2: TGGTGGCTACGACGGGATT
# B28: AAGACCU (DNA:RNA)
# RNA: B5 RNA with G25A, U27G, G28A, A30C, C31U
# DNA 1: CAATCTGAATTCCGGTCTCCC
# DNA 2: TGGTGGCTACGACGGGATT
# B29: UAAAGCA (DNA:RNA)
# RNA: B1 RNA with U26A, C27A, U29G, G31A
# DNA 1: CAATCTGAATTCCGGTCTCCC
# DNA 2: TGGTGGCTACGACGGGATT
# B30: AGUGUGU (DNA:RNA)
# RNA: B5 RNA with G25A, A26G, C29U, A30G, C31U
# DNA 1: CAATCTGAATTCCGGTCTCCC
# DNA 2: TGGTGGCTACGACGGGATT
# B31: GCAACUG (DNA:RNA)
# RNA: B5 RNA with A26C, U27A, G28A, A30U, C31G
# DNA 1: CAATCTGAATTCCGGTCTCCC
# DNA 2: TGGTGGCTACGACGGGATT
# Molecular target: T1, RBFOX1 RRM RbFoxmut (Fox-RRM*)
# Experiment: EMSA; HiTS-Eq, 1 nM pool, 10 min; buffer printed only for the single-RNA assays: 10 mM Tris pH 7.5, 150 mM NaCl, 3.4 mM EDTA, 0.001% NP-40, 30 C
# Conditions: tags: His6 N-terminal (pET28a); label: 5' 32P
# In short: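 A pool of RNA with 7 randomized nucleotides, 5′-radiolabelled and with DNA-annealed flanks, was equilibrated at 1 nM for 10 min in 50 µL with purified RbFox RRM, wild type or mutant, across increasing protein concentrations. Free RNA was separated by 8% native PAGE, excised, reverse-transcribed, barcoded by PCR and sequenced. Relative association constants were obtained from read-count changes of each RNA species versus the control reaction and normalised to the cognate motif.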
row,Binder,binding signal
1,B1,0.113 KA relative to UGCAUGU
2,B2,0.049 KA relative to UGCAUGU
3,B3,0.0441 KA relative to UGCAUGU
4,B4,0.0657 KA relative to UGCAUGU
5,B5,0.0758 KA relative to UGCAUGU
6,B6,0.0591 KA relative to UGCAUGU
7,B7,0.0972 KA relative to UGCAUGU
8,B8,0.101 KA relative to UGCAUGU
9,B9,0.799 KA relative to UGCAUGU
10,B10,0.104 KA relative to UGCAUGU
11,B11,0.0514 KA relative to UGCAUGU
12,B12,0.0812 KA relative to UGCAUGU
13,B13,0.0208 KA relative to UGCAUGU
14,B14,0.0918 KA relative to UGCAUGU
15,B15,0.0954 KA relative to UGCAUGU
16,B16,0.0993 KA relative to UGCAUGU

row,Binder,binding signal
1,B17,0.167 KA relative to UGCAUGU
2,B18,0.0872 KA relative to UGCAUGU
3,B19,0.0699 KA relative to UGCAUGU
4,B20,0.0822 KA relative to UGCAUGU
5,B21,0.0902 KA relative to UGCAUGU
6,B22,0.179 KA relative to UGCAUGU
7,B23,0.63 KA relative to UGCAUGU
8,B24,0.11 KA relative to UGCAUGU
9,B25,0.0686 KA relative to UGCAUGU
10,B26,0.0847 KA relative to UGCAUGU
11,B27,0.0941 KA relative to UGCAUGU
12,B28,0.0678 KA relative to UGCAUGU
13,B29,0.1 KA relative to UGCAUGU
14,B30,0.199 KA relative to UGCAUGU
15,B31,0.0599 KA relative to UGCAUGU
